{"source": "PubChem BioAssay AID624296", "about": "(National Center for Advancing Translational Sciences (NCATS), 2012)", "note": "The campaign covered roughly 350,000 compounds. About 9,900 (2.8%) were called active. This list was built around the results that the source calls inconclusive (neither active nor inactive); the mix of calls is not that of the screen. The call rests on the fitted dose curve; in most records, active means well fitted activation curve with a large enough effect; inconclusive means small, poorly fitted or top-dose-only effect; inactive means no such curve, though single readings can be large or run the other way. No potency is given beside an inconclusive call; the fits are too rough."}
{"test": "A quantitative high throughput screen for small molecules that induce DNA re-replication in MCF 10a normal breast cells; further: nearly all actives have a fitted effect of over 50% in size; further: potency means the concentration at half of the fitted maximal effect; tags describe the fitted curve by direction and shape; on activity, positive = re-replication: % of control where 0% means no effect.", "conditions": "MCF 10A DNA re-replication, Hoechst nuclear intensity, 48 h; activity, positive = re-replication: at 46.1 µM (top of the series)"}
{"compound": "C[C@]12c3[nH]c4ccccc4c3CCN1C(=O)C(CC(=O)NCC13CC4CC(CC(C4)C1)C3)C[C@@H]2C(=O)N1CCOCC1", "note": "(some centres not stated)", "Potency": "inactive"}
{"compound": "COc1ccc(C)cc1NCc1cccc(OC)c1OC", "Potency": "inactive"}
{"compound": "CCN1CCN(c2cc(C)c3cc(NC(=O)Cc4ccccc4OC)ccc3n2)CC1", "Potency": "inconclusive [activator, single point]"}
{"compound": "COc1cc(C(=O)/C=C/Nc2ccc(NC(C)=O)cc2)cc(OC)c1OC", "Potency": "active: 13 µM"}
{"compound": "Cc1oc(-c2nc3ccccc3n2C)cc1C(=O)c1ccccc1", "Potency": "inconclusive [activator, single point]"}
{"compound": "COc1cc(CCC(=O)Nc2nnc(-c3cccnc3)s2)cc(OC)c1OC", "Potency": "inconclusive [activator, single point]"}
{"compound": "O=C(NC1CCS(=O)(=O)C1)c1c(NC(=O)C2COc3ccccc3O2)sc2c1CCCC2", "note": "(configuration not stated)", "Potency": "inconclusive [activator, single point]"}
{"compound": "CN(C)N1C(=O)CC(N2CCCCC2)C1=O", "note": "(configuration not stated)", "Potency": "inconclusive [activator, single point]"}
{"compound": "O=C(NNC(=O)c1c(O)c2ccccc2[nH]c1=O)c1ccccc1", "Potency": "inconclusive [activator, partial curve, poor fit]"}
{"compound": "CCOC(=O)c1sc(=NC(=O)c2ccc(S(=O)(=O)N3CC(C)OC(C)C3)cc2)n(C)c1C", "note": "(configuration not stated)", "Potency": "inconclusive [activator, full curve, poor fit]"}
{"compound": "CCOC(=O)/C(C#N)=C/c1cn(CCOc2ccc(OC)cc2)c2ccccc12", "Potency": "active: 16.4 µM"}
{"compound": "COc1ccc(CCN(C)S(=O)(=O)c2cn(C)c(=O)n(C)c2=O)cc1OC", "Potency": "inactive"}
{"compound": "COc1ccc(C2Nc3ccccc3C(=O)N2c2ccccc2)cc1CN1CCOCC1", "note": "(configuration not stated)", "Potency": "inactive"}
{"compound": "Cc1ccc(SCCNC(=O)C(CO)(CO)CO)cc1", "Potency": "inactive"}
{"compound": "COc1ccccc1CC(=O)Nc1ccc(-c2nnc(-c3ccco3)o2)cc1", "Potency": "inconclusive [activator, single point]"}
{"compound": "CCN(CC)CC(=O)N1N=C(c2cccs2)CC1c1ccco1", "note": "(configuration not stated)", "Potency": "inconclusive [activator, full curve, poor fit]"}
{"compound": "CC(C)(C)c1ccc(-c2nnc(SCC(=O)Nc3sc4c(c3C#N)CCCC4)o2)cc1", "Potency": "inconclusive [activator, partial curve]"}
{"compound": "Cc1ccc(S(=O)(=O)N2CCCC(C(=O)N3CCN(c4ccccc4)CC3)C2)cc1", "note": "(configuration not stated)", "Potency": "inactive"}
{"compound": "COc1ccc(/C=N/Nc2nc(-c3ccc(C)cc3)c(C#N)c(=O)[nH]2)cc1", "Potency": "inconclusive [activator, single point]"}
{"compound": "Oc1ccccc1Nc1ncnc2c1oc1ccccc12", "Potency": "inconclusive [activator, partial curve, poor fit]"}
{"compound": "O=C(CN1CCN(C(=O)C2CCN(C(=O)/C=C/c3ccccc3)CC2)CC1)Nc1ccccc1Cl", "Potency": "inactive"}
{"compound": "O=C(NCc1ccc(Cl)cc1)C1CCCN(c2ncnc3c2nc2n3CCCCC2)C1", "note": "(configuration not stated)", "Potency": "inconclusive [activator, partial curve, poor fit]"}
{"compound": "Cc1ccc(S(=O)(=O)N/N=C2/CC(c3ccccc3)Oc3ccccc32)cc1[N+](=O)[O-]", "note": "(configuration not stated)", "Potency": "inconclusive [activator, partial curve]"}
{"compound": "S=C(NCCC1=CCCCC1)NCc1ccco1", "activity, positive = re-replication": "inactive: -3.47% [at 9.22 µM]"}
{"compound": "COc1cc(NC(=O)CN2CCN(CC(=O)Nc3ccccc3OC)CC2)cc(OC)c1", "Potency": "inconclusive [activator, full curve, poor fit]"}
{"compound": "CC(C(=O)N1CCc2ccccc21)N(C)CC(=O)Nc1ccc(F)cc1", "note": "(configuration not stated)", "Potency": "inconclusive [activator, partial curve, poor fit]"}
{"compound": "CN(Cc1ccccc1)C(=O)CSc1cc(=O)n(C)c2ccccc12", "Potency": "inactive"}
{"compound": "CCCC(c1nnnn1C1CCCCC1)N1CCN(C(=O)c2ccco2)CC1", "note": "(configuration not stated)", "Potency": "inconclusive [activator, partial curve, poor fit]"}
{"compound": "COc1ccc(OC)c(NS(=O)(=O)c2ccc(N3CCCC3=O)cc2)c1", "Potency": "inconclusive [activator, full curve, poor fit]"}
{"compound": "O=c1cc(-c2ccccc2)nc2nc(SCc3ccccc3)[nH]n12", "Potency": "inconclusive [activator, partial curve, poor fit]"}
{"compound": "Cc1ccccc1-n1c(SCC(=O)c2c(N)n(C)c(=O)n(C)c2=O)nc2sc3c(c2c1=O)CCCC3", "Potency": "inconclusive [activator, full curve, poor fit]"}
{"compound": "C=CCCC1CN(CCCC)S(=O)(=O)c2c(F)cccc2O1", "note": "(configuration not stated)", "Potency": "inactive"}
{"compound": "CC(=O)c1cccc(OC(=O)Oc2cccc(C(C)=O)c2)c1", "activity, positive = re-replication": "inconclusive: 48% [activator]"}
{"compound": "COc1ccc(C(=O)c2cc([N+](=O)[O-])ccc2N2CCOCC2)cc1", "Potency": "inconclusive [activator, full curve, poor fit]"}
{"compound": "Nc1c(-c2ccc(Cl)cc2)cnc2c(-c3ccc(F)cc3)cnn12", "Potency": "inconclusive [activator, partial curve, poor fit]"}
{"compound": "CCN(c1ccc(NC(=O)COC(=O)C2CCN(c3ccc(C(F)(F)F)cn3)CC2)cc1)C(C)C", "Potency": "inactive"}
{"compound": "Cc1ccc(N2C(=O)c3ccc(N)cc3C2=O)cc1C", "Potency": "inactive"}
{"compound": "O=C(CC1S/C(=N/N=C/c2ccco2)NC1=O)Nc1cccc(Cl)c1Cl", "note": "(configuration not stated)", "Potency": "inactive"}
{"compound": "COCc1ccc(CN2CCc3c([nH]c4ccccc34)C2C(C)(C)C)o1", "note": "(configuration not stated)", "Potency": "inconclusive [activator, single point]"}
{"compound": "COc1ccc(C[C@@H]2CN3C(=NC[C@@H]3Cc3ccc(O)cc3)N2C[C@H](C)NC(=O)CCC2CCCCC2)cc1", "Potency": "inactive"}
{"compound": "Cc1cc(C)c2cc(CN(Cc3ccco3)C(=O)NCc3ccccc3)c(=O)[nH]c2c1", "Potency": "inconclusive [activator, partial curve, poor fit]"}
{"compound": "CC(=O)Oc1ccc(C(=O)OCC(=O)c2c(N)n(C)c(=O)n(C)c2=O)cc1OC(C)=O", "Potency": "inconclusive [activator, single point]"}
